# Measurements from article PMC4336329 (PLoS ONE, 2015).
# Out of some 310,000 compounds screened, about 14,000 (4.5%) showed an effect of 50% or more. The effect is printed as a negative number. Some of the results follow.
# Target: human ether-à-go-go-related gene (hERG) potassium channel (human, UniProt Q12809)
# Test: primary screen, population patch clamp on CHO cells stably expressing hERG
# 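Note: peak tail current of the secondary pulse compared with the same well before compound.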
# human ether-à-go-go-related gene (hERG) potassium channel, sequence (Q12809 whole entry, looked up): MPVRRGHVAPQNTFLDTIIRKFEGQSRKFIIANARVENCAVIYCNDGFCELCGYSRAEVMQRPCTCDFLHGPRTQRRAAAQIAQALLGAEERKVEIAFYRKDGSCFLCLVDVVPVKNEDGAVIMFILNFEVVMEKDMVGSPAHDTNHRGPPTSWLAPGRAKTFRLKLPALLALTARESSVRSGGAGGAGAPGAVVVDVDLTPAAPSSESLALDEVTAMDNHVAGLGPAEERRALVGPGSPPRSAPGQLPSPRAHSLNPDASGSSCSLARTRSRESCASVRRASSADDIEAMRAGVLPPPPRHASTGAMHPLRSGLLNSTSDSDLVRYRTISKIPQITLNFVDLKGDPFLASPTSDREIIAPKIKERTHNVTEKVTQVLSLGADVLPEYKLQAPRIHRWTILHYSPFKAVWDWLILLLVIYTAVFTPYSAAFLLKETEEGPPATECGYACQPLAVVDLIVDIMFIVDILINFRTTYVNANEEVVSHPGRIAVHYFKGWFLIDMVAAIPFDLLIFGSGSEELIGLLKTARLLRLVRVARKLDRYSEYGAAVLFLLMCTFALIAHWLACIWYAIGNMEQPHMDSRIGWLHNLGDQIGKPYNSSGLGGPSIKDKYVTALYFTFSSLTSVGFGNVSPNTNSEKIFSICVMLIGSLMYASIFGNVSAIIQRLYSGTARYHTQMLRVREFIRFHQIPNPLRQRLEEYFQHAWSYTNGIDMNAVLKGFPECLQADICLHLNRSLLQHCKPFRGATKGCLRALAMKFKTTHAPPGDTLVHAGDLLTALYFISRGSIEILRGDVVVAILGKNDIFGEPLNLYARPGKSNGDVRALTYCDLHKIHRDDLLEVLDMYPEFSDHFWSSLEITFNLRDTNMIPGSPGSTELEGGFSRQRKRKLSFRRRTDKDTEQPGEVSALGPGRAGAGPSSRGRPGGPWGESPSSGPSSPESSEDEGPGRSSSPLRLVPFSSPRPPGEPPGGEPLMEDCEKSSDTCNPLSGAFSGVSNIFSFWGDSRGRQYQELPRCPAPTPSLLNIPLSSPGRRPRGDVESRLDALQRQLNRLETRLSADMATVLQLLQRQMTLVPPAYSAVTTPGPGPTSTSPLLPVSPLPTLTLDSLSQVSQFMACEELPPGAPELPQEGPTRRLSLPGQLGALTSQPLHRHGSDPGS
row,SMILES,"hERG current change (%, negative = inhibition) at 10uM [%]"
1,COc1ccc(CNc2cccc3[nH]c(C(F)(F)F)nc23)cc1.Cl,-13.3
2,C/C(=N\OC(=O)c1ccc(F)cc1)c1nccs1,3.53
3,CCN1CCN(C(=O)C2CCCN(S(=O)(=O)c3ccc(OC)c(OC)c3)C2)CC1 (stereo not shown),13.9
4,O=C(Nc1ccc(CN2CCCCC2)cc1)Nc1ccc(Br)cc1Cl,0.205
5,COc1ccc(/C=C/C(=O)NC(=S)NNC(=O)c2ccco2)cc1,13.8
6,Cc1ccc2nc(N/N=C\c3ccc([N+](=O)[O-])o3)nc(-c3ccccc3)c2c1,-72.6
7,CC(NC(=O)Nc1ccccn1)N1C(=O)C2C3C=CC(C3)C2C1=O (stereo not shown),6.12
8,O=C(N/N=C/c1ccc2cccnc2c1)c1ccco1,7.35
9,COC(=O)c1ccc(NC(=O)CN2CCN(CC#N)CC2)cc1.O=C(O)C(=O)O,3.24
10,Cc1ccc(C(=O)NCCc2cccc(Cl)c2)cc1[N+](=O)[O-],-29.7
11,CC(C)CC(COCc1ccc(Cl)cc1)N1CCN(C(=O)c2cccc(C(F)(F)F)c2)CCC1=O (stereo not shown),-38.1
12,NC(=O)CSc1nc(-c2ccccc2)c(-c2ccccc2)o1,-1.06
13,Cc1nc(Nc2ccccc2O)c2oc3ccccc3c2n1,13.3
14,O=C1c2ccc(Oc3ccc([N+](=O)[O-])cc3)cc2C(=O)N1c1ccncc1,5.31
15,O=C(/C=C/c1cccs1)N1CCOCC1,4.89
16,Cc1cc(Nc2cccc(F)c2)n2c(n1)nc1ccccc12,3.44
17,CCSc1ccccc1C(=O)n1nnc2ccccc21,5.18
18,Cc1noc2ncnc(Oc3ccc(C(C)(C)C)cc3)c12,13.7
19,O=C(Nc1ccccc1Cl)Oc1ccc(Cl)cc1Cl,12.8
20,O=c1c2ccccc2nc(-c2ccccc2)n1Cc1ccc(Cl)cc1,-15.7
21,CN(C)CC/C=C1/c2cc(F)ccc2Sc2ccc(Cl)cc21.Cl,-34.5
22,Cc1ccc(-n2c(SCC(=O)N/N=C/c3ccccc3OCC(=O)O)nc3ccccc3c2=O)cc1,13.6

row,SMILES,"hERG current change (%, negative = inhibition) at 10uM [%]"
1,COc1ccc(NC(=O)c2cc(-c3ccccc3Cl)on2)cc1OC,4.5
2,c1ccc2[nH]c(-c3cnco3)cc2c1,-1.31
3,Cc1c(NC(=O)c2cccc(NC(=O)Cc3ccc(F)cc3)c2)c(=O)n(-c2ccccc2)n1C,4.54
4,CN(C)C(CNC(=O)c1coc2ccccc2c1=O)c1ccccc1 (stereo not shown),4.85
5,CC(C)CC(=O)NCCc1ccncc1,4.26
6,CC(NC(=O)c1ccccc1NC(=O)c1ccco1)c1ccccc1 (stereo not shown),0.708
7,Cc1ccc(C2c3sc(=O)[nH]c3SC3C4CC(C5C(=O)N(C(C)C(=O)O)C(=O)C45)C23)cc1 (stereo not shown),12.3
8,CCOC(=O)c1c(NC(=O)c2ccco2)sc(C(=O)N2CCCC2)c1C,-1.58
9,CCC(C(=O)NCc1ccc(C)o1)n1nc(C)c2c(C)n(-c3ccccc3)nc2c1=O (stereo not shown),1.61
10,Cc1onc(-c2ccccc2)c1C(=O)NCc1ccc(F)cc1,-1.74
11,Cl.N=c1sccn1CC(=O)Nc1cc(Cl)ccc1Oc1ccccc1,-75.2
12,Cc1cc(Cl)ccc1C1=CC(=O)C[C@H](c2ccc(F)cc2)C1,15.7
13,CCOc1ncccc1C(=O)OCc1c(F)cccc1Cl,9.23
14,CN1CCN(c2nc(-c3ccccc3)nc(-c3ccccc3)c2C#N)CC1,1.72
15,Cl.NCCc1ccc(S(=O)(=O)F)cc1,-6.19
16,O=C(O)CCc1ccc(S(=O)(=O)Nc2ccccc2C(=O)NCCc2ccccc2)cc1,14.8
17,Cc1cc(CN(C)C(=O)CCc2nnc(Cc3cccc(C(F)(F)F)c3)o2)on1,4.52
18,O=S(=O)(c1ccc(-c2ccno2)s1)N1CCCCC1,0.962
19,O=C1Cc2cc(S(=O)(=O)Nc3ccccc3Cl)cc3c2N1CCC3,6.73
20,Cc1cc(NC(=O)c2ccc3c(c2)C(=O)N(Cc2ccccc2)C3=O)no1,15.3
21,O=C(Nc1ccc(F)cc1F)N1CCN(c2ncccn2)CC1,-8.77
22,CN(C)c1ccc(C#Cc2ccc3cc(CCCO)oc(=O)c3c2)cc1,21.3

row,SMILES,"hERG current change (%, negative = inhibition) at 10uM [%]"
1,COC(=O)c1cc(NC(=O)Nc2cc(OC)ccc2OC)cc(C(=O)OC)c1,-10
2,O=C(O)CCCCCN1C(=O)/C(=C\c2ccncc2)SC1=S,4.79
3,Cc1nnsc1SCC(=O)O,-0.15
4,CC1Oc2ccccc2N(CC(=O)N2CCc3ccccc32)C1=O (stereo not shown),-9.8
5,CC(C)C1=C2CCCCC2NC(=O)N1 (stereo not shown),1.29
6,CCc1nnc(NC(=O)C2Cc3ccccc3CN2S(=O)(=O)c2c(C)c(C)cc(C)c2C)s1 (stereo not shown),-7.19
7,CCCN(CC(=O)Nc1ccccc1C)C(=O)c1ccc(Cl)c(S(=O)(=O)N2CCCC2)c1,-4.26
8,COc1ccc(C(O)(CCC(C)C)C(CN2CCOCC2)c2ccccc2)cc1.Cl (stereo not shown),6.32
9,O=C(O)C(F)(F)C(NCc1ccccc1)c1ccccc1 (stereo not shown),6.62
10,CCc1cccc(C)c1NC(=O)CC1Oc2ccc(C)cc2NC1=O (stereo not shown),17.6
11,COc1cccc(N2CC(C(=O)NC3CCCCC3)CC2=O)c1 (stereo not shown),2.57
12,O=C1c2cccc3c(N4CCOCC4)c([N+](=O)[O-])cc(c23)C(=O)N1c1cccc2ccccc12,7
13,Cn1c(=O)n(C)c2cc(C(=O)Nc3ccc(Br)cc3)ccc21,14.5
14,COc1ccc(C(=O)c2ccc(OC)cc2O)c(O)c1,10.3
15,COc1ccc(Cn2nnnc2C(c2cc3cccc(C)c3[nH]c2=O)N2CCOCC2)cc1 (stereo not shown),-43.6
16,C=CCn1c(COc2cccc3cccnc23)nnc1SCC(=O)OC,13.6
17,COc1cccc(-c2nc3n(n2)C(c2ccc4c(c2)OCO4)C(C(N)=O)=C(C)N3)c1 (stereo not shown),1.05
18,C=CCn1c(SCc2csc(C)n2)nc2sc3c(c2c1=O)CCCC3,1.15
19,CC(=O)c1ccc(N2CCN(C(=O)C(=O)c3c(C)[nH]c4ccccc34)CC2)cc1,-42.4
20,CC(=O)c1cccc(CN2CCC(C(=O)Nc3ccc(-c4cccc(C)c4)cc3)CC2)c1,2.59
21,CC(=O)c1cccc(NC(=O)C(C)OC(=O)C2CCC2)c1 (stereo not shown),18.2
22,CCCCn1c(N)c(N(CC(C)C)C(=O)C2CC(=O)N(CCc3ccccc3)C2)c(=O)[nH]c1=O (stereo not shown),7.09

row,SMILES,"hERG current change (%, negative = inhibition) at 10uM [%]"
1,CCN1CCN(C(c2ccc(F)cc2)c2nnnn2Cc2ccc3c(c2)OCO3)CC1.Cl (stereo not shown),-44
2,O=C(CCS(=O)CCC(=O)NCc1ccccc1)NCc1ccccc1,17.7
3,COc1ccc(NC(=O)NC2(C(=O)N3CCCC(C)C3)CCCCC2)cc1 (stereo not shown),16.6
4,C[C@H](NC(=O)c1nc[nH]c1C(=O)OCc1ccccc1)c1ccccc1,10.3
5,O=C(NCc1cccnc1)c1ccc(COc2ccc(Cl)cc2)cc1,-58.6
6,COc1ccc(-c2cc(=O)oc3cc(OCC(=O)NCC(O)c4ccccc4)ccc23)cc1 (stereo not shown),2.17
7,CCC(=NCC1CCCO1)c1c(O)n(Cc2ccccc2)c(=O)[nH]c1=O (stereo not shown),-46.1
8,O=C(Cc1ccc(Cl)cc1)NNC(=O)c1cnccn1,4.98
9,CCc1nnc(NC(=O)C2CCCN2S(=O)(=O)c2ccc(C)cc2)s1 (stereo not shown),2.98
10,COc1ccc(Br)cc1C(=O)Nc1ccc(C(=O)NCC(C)C)cc1,-8.26
11,N#Cc1c(N)nc2c(c1N)CC(=O)N2c1ccc(Cl)cc1,3.95
12,CCOC(=O)c1[nH]c2ccc(F)cc2c1NC(=O)c1ccccc1C(=O)O,19.4
13,COc1cccc(/C=C2/SC(=O)N(CC(=O)N3CCc4ccccc4C3)C2=O)c1OCC(=O)O,11.8
14,COC(=O)CN1C(=O)C(C)=C(c2ccc(C)cc2)S1(=O)=O,-3.87
15,CCC(c1nnnn1Cc1ccco1)N(CCc1ccccc1)Cc1cc2cccc(C)c2[nH]c1=O (stereo not shown),11.4
16,COc1ccc(Nc2ncc(C(=O)N3CCC4(CC3)OCCO4)c3ccccc23)cc1,-3.86
17,Cc1ccccc1CC1(CO)CCCN(C(=O)c2ccccc2N(C)C)C1 (stereo not shown),-1.63
18,Cc1ccc(C(=O)COC(=O)C2CC(=O)N(c3nc(-c4ccccc4)cs3)C2)cc1 (stereo not shown),17.5
19,CC1CN=C(N(C(=O)Nc2ccccc2)c2ccc(F)cc2)S1 (stereo not shown),1.84
20,COc1ccccc1N1CCN(S(=O)(=O)c2ccc3c(c2)n(C)c(=O)n3C)CC1,3.95
21,c1ccc(-c2nn[nH]n2)cc1,13.4
22,O=c1[nH]c(COc2ccc(Cl)cc2Br)nc2ccccc12,1.54
